Results reported in PMC11756514, “Recognition of Staphylococcus aureus by the pattern recognition molecules langerin, mannan-binding lectin, and surfactant protein D: the influence of capsular polysaccharides and wall teichoic acid” (Frontiers in Immunology, 2024).

Biological target: the molecule itself
Test: mass photometry; purified langerin ECD after mannose-bead affinity and SEC; conditions not told in the text (Supplementary Figure S2C)

B1: Recombinant human soluble Langerin extracellular domain (ECD) (domain or fragment)
chain: not shown
notes: Langerin (CD207, CLEC4K), human, extracellular domain (neck region and C-terminal CRD), […] in Uniprot […]; Expressed from pET30a (GenScript); also called langerin ECD; soluble Langerin ECD
stoichiometry N: 3
